The RNAGym collection of RNA variant scans (doi:10.1093/nar/gkz1192)
The source gives no read counts; variants with many changes may rest on few reads.

B1: CPEB3 Ribozyme (parent)
chain: UAACAGGGGGCCACAGCAGAAGCGUUCACGUCGCAGCCCCUGUCAGAUUCUGGUGAAUCUGCGAAUUCUGCUGUAUAUCUC

Variants of: B1
Test: self-cleavage, relative activity (ratio to wild type); higher = more cleavage; in vitro, sequencing
Procedure, shortened: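 Libraries of CPEB3 self-cleaving ribozyme mutants came from rounds of error-prone PCR and carried barcodes, which DNA sequencing matched to variants. In vitro transcription used T7 RNA polymerase at 37°C for 5 hours, with a further 15 min in DNase I before EDTA stopped the reaction; the ribozymes cleaved during both steps. The RNA was reverse transcribed with template switching and sequenced on Illumina. Relative activity is the cleaved/total read fraction of a variant divided by that of the unmutated ribozyme, averaged over three batches with at least 5 reads.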

| Variant | self-cleavage |
| --- | --- |
| UAACAGGGGGCCACAGCAGAAGCGCCCACGUCGCUGCCCCUGUCAGAUUCUGGUGAAUCUGCGAAAUCUGCUGUAUCUCUC [U25C U26C A35U U66A A77C] | 0.07 |
| UAACAGGGGGCCACAGCAGAAGCGCCCACGUCGCAGCCCCUGUCAGAUUCUGGUGAAUCUGCGGAUUCUGCAGUAUAUCUC [U25C U26C A64G U72A] | 0.07 |
| UAACAGGGGGCCACAGCAGAAGCGCCCACGUCGCAGCCCGUGUCAGAUUCUGGUGAAUCUGCGAACUCGGCUGCAUAUCUC [U25C U26C C40G U66C U69G U74C] | 0.12 |
| UAACAGGGGGCCACAGCAGAAGCGCCCACGUCGCAGCCCCUGUCAGAUUCUGCUGAAUCUGCGAAUUCUGCUGUAUACCUC [U25C U26C G53C U78C] | 0.23 |
| UAACAGGGGGCCACAGCAGAAGCGCCCACGACGCAGCCCUUGUCAGAUUCUGGUGAAUCUGCGGAUUAUGCUGUAUAUCUC [U25C U26C U31A C40U A64G C68A] | 0.06 |
| UAACAGGGGGCCACAGCAGAAGCGCCCACGCCGCAGCCCCUGGCAGAUACUGGUGAAUCUGCGAAUUCUGCUGUAUAUCUC [U25C U26C U31C U43G U49A] | 0 |
| UAACAGGGGGCCACAGCAGAAGCGCCCACGUCGCAGCCCCAGUCAGAUUCCGGUGAAUCUGCGAAUUCUGCUGUAUAUCAC [U25C U26C U41A U51C U80A] | 0.21 |
| UAACAGGGGGCCACAGCAGAAGCGCCCACGUCGCAGCCCCCGUCAGACUCUGGUGAAUCUGCGAAUUCUGCUGUAUAUCUC [U25C U26C U41C U48C] | 0.05 |
| UAACAGGGGGCCACAGCAGAAGCGCCCACGUCGCAGCCCCCGUCAGAUACUGGUGAAUCUUCGAAUUCAGCUGUAUACCUC [U25C U26C U41C U49A G61U U69A U78C] | 0.06 |
| UAACAGGGGGCCACAGCAGAAGCGCCCACGUCGCAGCCCCUGACAGAUUCUGGUGAAUCUGCGAAUUCUGCUGAAUAUCUC [U25C U26C U43A U74A] | 0.28 |
| UAACAGGGGGCCACAGCAGAAGCGCCCACGUCGCAGCCCCUGCCAGAUUCUGGUGAAUCUGCGAACUCUGCUGUAUAUCUC [U25C U26C U43C U66C] | 0.1 |
| UAACAGGGGGCCACAGCAGAAGCGCCCACGUCGCAGCCCCUGUCAGAUACUGGUGAAUCUGCGAAUUCUGCUGUAUAUCUC [U25C U26C U49A] | 0.28 |
| UAACAGGGGGCCACAGCAGAAGCGCCCACGUCGCAGCCCCUGUCAGAUUCUGGUGAAUCCGCGAAUUCCGCUGUAUAUCUC [U25C U26C U60C U69C] | 0.18 |
| UAACAGGGGGCCACAGCAGAAGCGCCCACGUCGCAGCCCCUGUCAGAUUCUGGUGAAUCUGCGAACUCUGCUGUAUAUCUC [U25C U26C U66C] | 0.21 |
| UAACAGGGGGCCACAGCAGAAGCGCGCACGUCGCAGCCCCUGUCAGACUCUGGUGAGUCUGCGAAUUCUGCUGUAUAUCUC [U25C U26G U48C A57G] | 0.23 |
| UAACAGGGGGCCACAGCAGAAGCGCUCACGACGCAGCCCCUGUCAGAUUCUGGUGAGUUUGCAAAUUCUGCUGUAUAUCUC [U25C U31A A57G C59U G63A] | 0.13 |
| UAACAGGGGGCCACAGCAGAAGCGCUCACGACGCAGCCCCUGUCAGAUUCUGGUGAAUCUGCGAAUUCUGCUGUAUGUCUC [U25C U31A A77G] | 0.26 |

| Variant | self-cleavage |
| --- | --- |
| UAACAGGGGGCCACAGCAGAAGCGCUCACGACGCAGCCCUUGUCAGAUUCUGGUGAAUCUGCGGAUUAUGCUGUAUAUCCC [U25C U31A C40U A64G C68A U80C] | 0.08 |
| UAACAGGGGGCCACAGCAGAAGCGCUCACGACGCAGCCCCAGUCAGGUUCUGGUGAAUCUGCGAAUUCAGCAGUAUAUCUC [U25C U31A U41A A47G U69A U72A] | 0.06 |
| UAACAGGGGGCCACAGCAGAAGCGCUCACGACGCAGCCCCCGUCAGAUUCUGGUGAAUCUGCGAAUUCUGGUGUAUACCUC [U25C U31A U41C C71G U78C] | 0.22 |
| UAACAGGGGGCCACAGCAGAAGCGCUCACGACGCAGCCCCCGUCAGACUCUGGUGAAUCUGCGAAUUCUGCUGCAUAUCUC [U25C U31A U41C U48C U74C] | 0.18 |
| UAACAGGGGGCCACAGCAGAAGCGCUCACGACGCAGCCCCUGUCAGAUUCUGGCUAAUCUGCGAAAUCAGCUGUAUAUCAC [U25C U31A U54C G55U U66A U69A U80A] | 0.25 |
| UAACAGGGGGCCACAGCAGAAGCGCUCACGCCGCAGCCCCUGUCAGAUUCUGGUGAAUCUGCGUAUUCUGCUGUAUAUCUC [U25C U31C A64U] | 0.27 |
| UAACAGGGGGCCACAGCAGAAGCGCUCACGCCGCAGCCCCUGUCAGAUUCUGGUGAAUCUGCGUAUUCUGCUAUUUAUCUC [U25C U31C A64U G73A A75U] | 0.1 |
| UAACAGGGGGCCACAGCAGAAGCGCUCACGCCGCAGCCCCUGUCAGAUUCUGGUGAAUCUGCGAAUUCUGCUGUGUAUCCC [U25C U31C A75G U80C] | 0.11 |
| UAACAGGGGGCCACAGCAGAAGCGCUCACGCCGCAGCCCUUGUCUGAUUCUGGUGAAUCUGCGAAUUCUGCCGUAUAUCUA [U25C U31C C40U A45U U72C C81A] | 0.06 |
| UAACAGGGGGCCACAGCAGAAGCGCUCACGCCGCAGCCCUUGUCAGACUCUGGUGAAUCUGCGAAUUCUGCUGUAUAUCUC [U25C U31C C40U U48C] | 0.17 |
| UAACAGGGGGCCACAGCAGAAGCGCUCACGCCGCAGCCCCUGCCAGAUUCUGGUGAAUCUGCGAAUACUGCUGUAUAUCUC [U25C U31C U43C U67A] | 0.1 |
| UAACAGGGGGCCACAGCAGAAGCGCUCACGCCGCAGCCCCUGUCAGAUUCAGGUGAACCUGCGAAUUCUGCUGUAUAUCUC [U25C U31C U51A U58C] | 0.07 |
| UAACAGGGGGCCACAGCAGAAGCGCUCACGCCGCAGCCCCUGUCAGAUUCUGGAGAAUCUGCGUAUUCUGCUGUAUAUCUC [U25C U31C U54A A64U] | 0.12 |
| UAACAGGGGGCCACAGCAGAAGCGCUCACGCCGCAGCCCCUGUCAGAUUCUGGGGAAUCUGCGAAUUCUGCUGUAUAUCUC [U25C U31C U54G] | 0.2 |
| UAACAGGGGGCCACAGCAGAAGCGCUCACGCCGCAGCCCCUGUCAGAUUCUGGUGAAUCUGCGAAUUCUGCAGUAUAUCUC [U25C U31C U72A] | 0.21 |
| UAACAGGGGGCCACAGCAGAAGCGCUCACGUCGCAGCCCCAGUCAGGUCCUGGAGAAUCUGCGGACUCUGCUGUAUAUCUC [U25C U41A A47G U49C U54A A64G U66C] | 0 |
| UAACAGGGGGCCACAGCAGAAGCGCUCACGUCGCAGCCCCAGUCAGGUUCAGGUGAAUCUGCGAAUUCUGCUGUAUAUCUC [U25C U41A A47G U51A] | 0.14 |
